In patent US20230346952A1, “CANNABINOID GLYCOSIDE PRODRUGS AND METHODS OF SYNTHESIS” (priority 2015, published 2023):

Key:
[1] = tested on: Lallzyme Beta™ (Lallemand); test: In vitro digestion with Lallzyme Beta; details: 5 mg/ml Lallzyme Beta, 20 mM citrate buffer pH 4.0, 44° C.; HPLC
[2] = tested on: Vinotaste Pro (Novozymes); test: In vitro digestion with Vinotaste Pro; details: same digestion conditions as for Lallzyme Beta; HPLC
[3] = Bioavailability assay: intestinal contents after oral gavage of VB110; type: in vivo, Swiss mice; details: 120 mg/kg VB110 oral gavage, C18 HPLC
Experimental: In order to investigate the effectiveness of glycosylation to effect site-specific drug delivery, VB110 was administered to three mice by oral gavage and the animals sacrificed at 30, 60, and 90 minutes. Eight week old male Swiss mice were fasted for 12 hours prior to administration of 120 mg/kg VB110 in 10% Ethanol USP, 10% Propylene Glycol USP, 0.05% Sodium Deoxycholate USP, 79.95% Saline USP. Following termination and tissue harvest, the intestinal contents were then extracted and analyzed by C18 reverse phase HPLC. […] This decoupling of VB110 is consistent with the large intestinal decoupling seen for sennoside beta-glycosides, and is the result of secreted beta-glycosidases from the large intestinal microflora.

[4] = target: human cannabinoid receptor type 2 (CB2R) (Homo sapiens, UniProt P34972); test: Radioligand binding assay, human CB2R; details: 10 µM test compound; 2.40 nanomolar [3H] R(+)-WIN-55,212-2; human recombinant CHO-K1 cells; 90 minutes at 37 C
Sequence of UniProt P34972 (P34972 whole entry): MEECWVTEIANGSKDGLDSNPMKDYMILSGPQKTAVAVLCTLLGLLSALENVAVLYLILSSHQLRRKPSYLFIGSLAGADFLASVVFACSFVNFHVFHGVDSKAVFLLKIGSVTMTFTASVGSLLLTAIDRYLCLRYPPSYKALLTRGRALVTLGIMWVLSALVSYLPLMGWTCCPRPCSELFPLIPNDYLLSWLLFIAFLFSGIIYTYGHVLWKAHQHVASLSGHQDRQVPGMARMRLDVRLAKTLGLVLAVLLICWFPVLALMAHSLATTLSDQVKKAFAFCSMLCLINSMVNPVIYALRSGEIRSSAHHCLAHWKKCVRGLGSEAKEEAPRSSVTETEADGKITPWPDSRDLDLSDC

[5] = 1,000 mg/kg mixed glycosides by oral gavage; 6 hours; HPLC
[6] = tested on: Canus familiarus fecal sample; test: Canine fecal digestion assay; type: in vitro ADME; details: fecal samples 25 and 26; 37° C., 70 hours
Experimental: As the intestinal contents or feces of animals contain a tremendous diversity of microbes, as well as the carbohydrate-digesting enzymes secreted by those bacteria, it would be expected that when THC-glycosides are subjected to the intestines or feces of animals, they would decouple back to THC. The following samples were assayed to determine their respective glycosidic activities on select THC-glycosides: • 25 = Canus familiarus fecal sample, “Stevie”; Terrier of mixed breed; • 26 = Canus familiarus fecal sample, “Lucy”; Labrador Retriever; • 27 =Mus musculus small intestine contents, BALB/C; • 28 = Mus musculus large intestine contents, BALB/C; • 29 = Rattus rattus small intestine contents, Sprague Dawley; • 30 = Rattus rattus large intestine contents, Sprague Dawley; • 31 = Rattus rattus intestines - inferred from plasma sample, Sprague Dawley; • 32= Macaca fascicularis intestines - inferred from plasma sample, Cynomolgus monkey.
The assay for the Canus familiarus fecal samples was carried out according to the following protocol: A fresh fecal sample was obtained using an ethanol sterilized scoopula and transferred into a sterile 50 ml conical tube. […]
200 µl samples were pulled and extracted 3 times with 200 µl ethyl acetate (EtOAc) each. […] A 1:10 dilution of each was prepared in 50% MeOH and 10 µl injections were analyzed by HPLC. […]

[7] = Rat plasma toxicokinetics post VB302 administration at 1,000 mg/kg; details: post VB302 oral gavage 1,000 mg/kg, label = analyte in plasma; for AUC in plasma: 1, 2, 6, 24 hours
[8] = Rat plasma toxicokinetics post VB311 administration at 1,000 mg/kg; details: for relative amount in plasma: label = analyte
[9] = Antimicrobial activity observed in phytocannabinoid glycosylation reaction mixtures; details: large-scale glycosylation reaction mixtures
[10] = Analysis of large intestine contents upon administration of CBD and CBD glycosides; type: in vivo, Swiss mice; details: 2 hours
Experimental: In order to investigate the metabolism and decoupling of CBD-glycosides in the large intestine, an aqueous solution of a mixture of CBD-glycosides was administered to a mouse by oral gavage. As a control, a solution of CBD in cremophor, ethanol, and saline was administered to a second mouse. The animals were each sacrificed at 2 hours. Following termination and tissue harvest, the intestinal contents were then extracted and analyzed by C18 reverse phase HPLC. The mice employed in this example were eight week old male Swiss mice fasted for 12 hours prior to administration of the solutions.
The resulting extracts were analyzed by LCMS performed using a Shimadzu LC-MS 2010 EV. LC separation was carried out using a Silia Chrom XDB C18 5 um, 150A, 4.6×50 mm. The method was 12 min, 5 to 95 H2O:ACN gradient elution. Low resolution MS was performed in negative mode via electrospray ionization (ESI). Acetic acid and formic acid were used as sample additives during analysis, and the injection volume was 20 µl.

[11] = rat plasma, analyte measured after oral gavage of VB311 at 1,000 mg/kg, average

Molecule: CBD-1-O-(3-1), 2-O-triglucopyranoside [VB112]
- digestion by Lallzyme Beta (extent / products) [1]: digested back primarily to VB102, with some VB110 and slight CBD
- digestion by Vinotaste Pro (extent / products) [2]: digested back to VB110, with a small amount of VB102

Molecule: CBD-1-O-(3-1), 2-O-(3-1)-tetraglucopyranoside [VB119]
- digestion by Lallzyme Beta (extent / products) [1]: digested back primarily to VB102, with some VB110 and slight CBD
- digestion by Vinotaste Pro (extent / products) [2]: digested back to VB110, with a small amount of VB102

Molecule: C=C(C)[C@@H]1CCC(C)=C[C@H]1c1c(O[C@@H]2O[C@H](CO)[C@@H](O)[C@H](O)[C@H]2O)cc(CCCCC)cc1O[C@@H]1O[C@H](CO)[C@@H](O)[C@H](O)[C@H]1O [VB110, CBD-1,2-O-diglucopyranoside]
- digestion by Lallzyme Beta (extent / products) [1]: capable of hydrolyzing VB110 to VB102
- compounds found in small intestinal contents ([3]; 30, 60, 90 minutes): intact VB110, but no decoupled CBD
- compounds found in large intestinal contents ([3]; 60 and 90 minute time points): contained both VB110 and CBD

Molecule: C=C(C)[C@@H]1CCC(C)=C[C@H]1c1c(O)cc(CCCCC)cc1O[C@@H]1O[C@H](CO)[C@@H](O)[C@H](O)[C@H]1O [VB102, CBD-1-O-glucopyranoside]
- digestion by Lallzyme Beta (extent / products) [1]: VB102 to CBD

Molecule: CCCCCc1cc(O[C@@H]2O[C@H](CO)[C@@H](O)[C@H](O)[C@H]2O)c2c(c1)OC(C)(C)[C@@H]1CCC(C)=C[C@@H]21 [VB302, Δ9THC-1-O-glucopyranoside]
- percent displacement of [3H] WIN-55,212-2 at human CB2R [4]: 17%

Molecule: CCCCCc1cc(O[C@@H]2O[C@H](CO)[C@@H](O[C@@H]3O[C@H](CO)[C@@H](O)[C@H](O[C@@H]4O[C@H](CO)[C@@H](O)[C@H](O)[C@H]4O)[C@H]3O)[C@H](O)[C@H]2O)c2c(c1)OC(C)(C)[C@@H]1CCC(C)=C[C@@H]21 [VB312]
- digestion by Lallzyme Beta (extent / products) [1]: entirely digested into VB302
- change of share of total THC-glycosides in large intestine extracts versus small intestine extracts [5]: further decreases
- change of share of total THC-glycosides in small intestine extracts versus administered mixture [5]: modest decrease

Molecule: CCCCCc1cc(O)c2c(c1)OC(C)(C)[C@@H]1CCC(C)=C[C@@H]21 [VB301, Δ9-Terahydrocannabinol, reference compound]
- percent displacement of [3H] WIN-55,212-2 at human CB2R [4]: 97%

Molecule: CCCCCc1cc(O[C@@H]2O[C@H](CO[C@@H]3O[C@H](CO)[C@@H](O)[C@H](O)[C@H]3O)[C@@H](O)[C@H](O)[C@H]2O)c2c(c1)OC(C)(C)[C@@H]1CCC(C)=C[C@@H]21 [VB310]
- digestion by Lallzyme Beta (extent / products) [1]: entirely digested into VB302
- change of share of total THC-glycosides in large intestine extracts versus small intestine extracts [5]: further increases
- change of share of total THC-glycosides in small intestine extracts versus administered mixture [5]: increases

Molecule: C=C(C)[C@@H]1CCC(C)=C[C@H]1c1c(O)cc(CCCCC)cc1O[C@@H]1O[C@H](CO)[C@@H](O[C@@H]2O[C@H](CO)[C@@H](O)[C@H](O)[C@H]2O)[C@H](O[C@@H]2O[C@H](CO)[C@@H](O)[C@H](O)[C@H]2O)[C@H]1O [VB135]
- resistance to glycoside hydrolase activity in canine feces [6]: unique resistance to glycoside hydrolase activity
- digestion by Lallzyme Beta (extent / products) [1]: highly resistant to hydrolysis
- digestion by Vinotaste Pro (extent / products) [2]: highly resistant to hydrolysis

Molecule: CCCCCc1cc(O[C@@H]2O[C@H](CO[C@@H]3O[C@H](CO)[C@@H](O)[C@H](O)[C@H]3O)[C@@H](O[C@@H]3O[C@H](CO)[C@@H](O)[C@H](O)[C@H]3O)[C@H](O)[C@H]2O)c2c(c1)OC(C)(C)[C@@H]1CCC(C)=C[C@@H]21 [VB311]
- percent displacement of [3H] WIN-55,212-2 at human CB2R [4]: 21%

Molecule: CCCCCc1cc(O[C@@H]2O[C@H](CO)[C@@H](O[C@@H]3O[C@H](CO)[C@@H](O)[C@H](O)[C@H]3O)[C@H](O)[C@H]2O)c2c(c1)OC(C)(C)[C@@H]1CCC(C)=C[C@@H]21 [VB309]
- digestion by Lallzyme Beta (extent / products) [1]: entirely digested into VB302
- change of share of total THC-glycosides in large intestine extracts versus small intestine extracts [5]: sharp decrease
- change of share of total THC-glycosides in small intestine extracts versus administered mixture [5]: increases

Molecule: CCCCCc1cc(O[C@@H]2O[C@H](CO[C@@H]3O[C@H](CO)[C@@H](O)[C@H](O)[C@H]3O)[C@@H](O[C@@H]3O[C@H](CO)[C@@H](O)[C@H](O[C@@H]4O[C@H](CO)[C@@H](O)[C@H](O)[C@H]4O)[C@H]3O)[C@H](O)[C@H]2O)c2c(c1)OC(C)(C)[C@@H]1CCC(C)=C[C@@H]21 [VB313]
- change of share of total THC-glycosides in small intestine extracts versus administered mixture [5]: sharp decrease

Molecule: CCCCCc1cc(O)c2c(c1)OC(C)(C)[C@@H]1CCC(CO)=C[C@@H]21 [11-OH-Tetrahydrocannabinol, reference compound]
- AUC in plasma ([7]; listed as 11-OH-THC): 106.9 ng·h/mL
- AUC in plasma ([7]; listed as Δ9-THC-11-OH): 107 ng·h/mL
- Cmax in plasma [7]: 7.9 ng/mL
- Tmax in plasma [7]: 24.0 h
- relative amount in plasma ([8]; 6 hours post VB311 oral gavage): remained at trace levels
- relative amount in plasma ([8]; 24 hours post VB311 oral gavage): increased at 24 hours
- Cmax [8, 11]: 17.3 ng/mL
- Tmax [8, 11]: 24.0 h
- AUC ([8]; rat plasma, analyte measured after oral gavage of VB311 at 1,000 mg/kg, average, over 24 hours): 320.2 ng·h/mL

Molecule: C=C(C)[C@@H]1CCC(C)=C[C@H]1c1c(O)cc(CCCCC)cc1O [VB101, Cannabidiol (CBD)]
- antimicrobial activity [9]: noticeable antimicrobial activity
- presence of CBD-glycosides and CBD in plasma and brains ([10]; HPLC, data not shown): CBD was only present in the control animal that received CBD aglycone
- compounds found in large intestinal contents ([10]; oral CBD in cremophor, ethanol, saline (control), LCMS): hydroxy metabolites of CBD were present
